The results in this text go back to article PMC4336329 (PLoS ONE, 2015).

Among all 310,000 compounds or so, about 2,200 (0.71%) showed an effect of 50% or more. The effect is printed as a negative number. This is one part of the list.

This assay deals with human ether-à-go-go-related gene (hERG) potassium channel (human, UniProt Q12809). Description: primary screen, population patch clamp on CHO cells stably expressing hERG.
Sequence of human ether-à-go-go-related gene (hERG) potassium channel (Q12809 whole entry, looked up): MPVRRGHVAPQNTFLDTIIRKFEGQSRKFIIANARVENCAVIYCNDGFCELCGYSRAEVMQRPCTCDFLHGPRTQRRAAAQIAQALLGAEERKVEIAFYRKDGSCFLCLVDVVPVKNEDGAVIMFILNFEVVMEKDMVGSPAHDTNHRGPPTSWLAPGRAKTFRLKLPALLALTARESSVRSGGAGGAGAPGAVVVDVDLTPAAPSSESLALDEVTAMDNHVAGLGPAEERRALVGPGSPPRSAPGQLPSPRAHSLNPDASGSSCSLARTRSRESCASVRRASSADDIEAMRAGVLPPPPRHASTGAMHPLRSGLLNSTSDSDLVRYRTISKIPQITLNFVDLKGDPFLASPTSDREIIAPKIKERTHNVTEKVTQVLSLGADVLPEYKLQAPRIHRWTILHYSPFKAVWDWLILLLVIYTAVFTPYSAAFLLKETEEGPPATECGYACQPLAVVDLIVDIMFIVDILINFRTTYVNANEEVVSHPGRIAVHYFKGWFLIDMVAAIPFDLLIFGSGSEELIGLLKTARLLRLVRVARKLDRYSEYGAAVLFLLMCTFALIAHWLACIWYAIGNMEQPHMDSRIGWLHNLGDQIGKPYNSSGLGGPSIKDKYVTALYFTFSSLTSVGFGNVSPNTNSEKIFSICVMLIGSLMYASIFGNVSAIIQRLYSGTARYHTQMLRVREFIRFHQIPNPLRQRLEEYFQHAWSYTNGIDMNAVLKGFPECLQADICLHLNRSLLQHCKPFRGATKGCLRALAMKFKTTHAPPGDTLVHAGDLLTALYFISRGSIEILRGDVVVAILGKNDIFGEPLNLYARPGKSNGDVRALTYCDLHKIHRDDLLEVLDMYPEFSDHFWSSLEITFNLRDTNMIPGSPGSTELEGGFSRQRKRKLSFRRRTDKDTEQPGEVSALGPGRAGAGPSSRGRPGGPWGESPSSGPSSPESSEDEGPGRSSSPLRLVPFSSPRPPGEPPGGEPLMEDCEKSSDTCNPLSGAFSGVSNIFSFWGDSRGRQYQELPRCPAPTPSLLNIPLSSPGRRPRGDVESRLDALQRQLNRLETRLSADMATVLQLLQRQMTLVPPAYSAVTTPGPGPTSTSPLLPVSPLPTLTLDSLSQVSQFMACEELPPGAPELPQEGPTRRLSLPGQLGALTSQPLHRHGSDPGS
`O=C1c2ccccc2C(=O)N1CCCCSc1nnc2ccccn12`: the “hERG current change (%, negative = inhibition) at 1uM” value was -1.96%. Take `CC(Oc1ccc(C(=O)NC2CCCCC2)cc1)C(=O)O` (stereo not shown): the “hERG current change (%, negative = inhibition) at 1uM” value came out at 14.1%. For `Cc1ccc(S(=O)(=O)NCC(=O)OCC(=O)N(C)C2CCS(=O)(=O)C2)cc1` (stereo not shown), the “hERG current change (%, negative = inhibition) at 1uM” value is reported as 15.9%. In the case of `CC1CCN(CCC(=O)Nc2ccc(F)c(F)c2)CC1`, the “hERG current change (%, negative = inhibition) at 1uM” value was 8.68%. As for `O=C(CSC1=NC(=O)C(c2ccccc2)C(=O)N1)Nc1ccccc1Cl` (stereo not shown), the figure is 10.1%. The same measure for `COC(=O)C1=C(c2ccc(F)cc2F)C[C@@H]2CC[C@H]1N2C(=O)NCc1ccco1`: 9.41%; for `CC(c1ccccc1)N(NC(=O)C(O)(c1ccccc1)c1ccccc1)C(=O)c1ccccc1` (stereo not shown): 9.29%. Turning to `COC(=O)c1cc(C(=O)OC)cc(N2C(=O)CC(Sc3nc(C)cc(C)n3)C2=O)c1` (stereo not shown), the “hERG current change (%, negative = inhibition) at 1uM” value is recorded as -1.29%. Turning to `CC1CCCN(S(=O)(=O)c2ccc([N+](=O)[O-])cc2)C1` (stereo not shown), the “hERG current change (%, negative = inhibition) at 1uM” value is 6.42%. Take `O=C(Cn1cc([N+](=O)[O-])cn1)NCCc1nc2ccccc2[nH]1`: the “hERG current change (%, negative = inhibition) at 1uM” value was found to be 14.7%.

Take `Cc1ccc(C(=O)COC(=O)c2ccccc2N2C(=O)C3C4CCC(C4)C3C2=O)cc1C` (stereo not shown): the “hERG current change (%, negative = inhibition) at 1uM” value is -23.7%. The same measure for `O=C(Nc1ccc(Br)cc1)c1cccnc1N1CCCCC1`: 0.624%.

With `O=S(=O)(c1ccc(Cl)cc1)N1CCCC(c2nc(-c3ccc(F)cc3)no2)C1` (stereo not shown), the “hERG current change (%, negative = inhibition) at 1uM” value was determined as 7.73%. On to `CCCCCCCc1c(O)nc(SCCN2CCOCC2)[nH]c1=O.Cl`, for which the “hERG current change (%, negative = inhibition) at 1uM” value is -2.95%. Regarding `Cc1ccccc1NS(=O)(=O)c1ccc2c(c1)NC(=O)CO2`, the “hERG current change (%, negative = inhibition) at 1uM” value was 9.63%. On to `COC(=O)C1=C(C)NC(=O)NC1c1c(O)ccc2ccccc12` (stereo not shown), for which the “hERG current change (%, negative = inhibition) at 1uM” value was 10.7%. Turning to `COc1ccc(-c2ccc(SCC(=O)NCc3ccco3)nn2)cc1OC`, the “hERG current change (%, negative = inhibition) at 1uM” value is -3.88%.

On to `CC1=C(C(=O)Nc2cccc(C(=O)NCc3ccc(F)cc3)c2)SCCO1`, for which the “hERG current change (%, negative = inhibition) at 1uM” value came to 15.3%. As for `C=C(C)CNC(=S)N/N=C\c1ccc2c(c1)OCO2`, the “hERG current change (%, negative = inhibition) at 1uM” value is reported as -15.4%. With `O=C1OCC/C1=C\c1ccc(O)cc1`, the “hERG current change (%, negative = inhibition) at 1uM” value came out at 5.83%. The same measure for `O=C(c1ccco1)N1CCCN(Cc2nc(Cc3ccccc3)no2)CC1`: 1.8%; for `CCC(CC)C(=O)Nc1cccc(-c2ccc3nncn3n2)c1`: 9.22%.

Regarding `COc1ccc(Cn2c(=O)[nH]c3cc(C(=O)N4CCN(c5ccccc5F)CC4)ccc3c2=O)cc1`, the “hERG current change (%, negative = inhibition) at 1uM” value came out at 11.8%. Consider `CC(=O)Nc1ccccc1OC(C)C(=O)N1CC(C)CC(C)C1` (stereo not shown), for which the “hERG current change (%, negative = inhibition) at 1uM” value was determined as 4.64%. For the compound `COc1ccc(OCCCC(=O)Nc2nncs2)cc1`, the “hERG current change (%, negative = inhibition) at 1uM” value is 9.03%.

In the case of `O=C1/C(=C/C=C/c2ccccc2)Oc2c1ccc(O)c2CN1CCN(CCO)CC1`, the “hERG current change (%, negative = inhibition) at 1uM” value is 10.4%. In the case of `O=C(O)c1ccc(-n2c(O)c(/C=C3\C=Nc4ccccc43)c(=O)[nH]c2=O)cc1`, the “hERG current change (%, negative = inhibition) at 1uM” value is 14.5%. For `CCN(CC(=O)NCc1ccc(Cl)cc1)C(=O)CCc1ccccc1O`, the “hERG current change (%, negative = inhibition) at 1uM” value is reported as -13.1%. Consider `Cc1ccc(Oc2cc(NN3CCCCC3)c([N+](=O)[O-])cc2[N+](=O)[O-])c([N+](=O)[O-])c1`, for which the “hERG current change (%, negative = inhibition) at 1uM” value is reported as 9.74%. Regarding `CCOc1cccc(OCCCNCCCOC)c1`, the “hERG current change (%, negative = inhibition) at 1uM” value is -2.81%. In the case of `Cn1nc(C(=O)Nc2ccc3c(c2)OCCO3)c2ccccc2c1=O`, the “hERG current change (%, negative = inhibition) at 1uM” value is recorded as -4.96%. As to `O=C1Nc2ccccc2/C1=N\N=C\C1=C(N2CCOCC2)C(=C\c2ccccc2)/CC1`, the “hERG current change (%, negative = inhibition) at 1uM” value was 11.3%. As for `CCSC1=N/C(=C\c2ccccc2)C(=O)N1`, the “hERG current change (%, negative = inhibition) at 1uM” value came out at 8.42%.

With `Cc1csc(NC(=O)c2ccc(=O)[nH]c2)n1`, the “hERG current change (%, negative = inhibition) at 1uM” value is given as 10.5%. Take `O=C(Nc1cccnc1)C(Cc1ccccc1)n1cccc1` (stereo not shown): the “hERG current change (%, negative = inhibition) at 1uM” value is on record as 13.4%. For `Cc1ccc(C)c(C(=O)CN2C(=O)NC3(CCC(C)CC3)C2=O)c1` (stereo not shown), the “hERG current change (%, negative = inhibition) at 1uM” value turned out to be 5.6%. As for `CN(Cc1ccn[nH]1)C(=O)C1CCC(=O)N(Cc2cccc(C(F)(F)F)c2)C1` (stereo not shown), the figure is 8.8%; as for `CCOc1cccc2sc(N(CCCN(C)C)C(=O)c3ccc(S(=O)(=O)N(C)c4ccccc4)cc3)nc12.Cl`, -22.8%; as for `COc1ccccc1/C=C/C=NC1C(=O)N(c2ccccc2)[N+](C)=C1C` (stereo not shown), 13.1%. As for `Cc1ccc(CNC(=O)N2CCN(c3ccc(C)cc3)CC2)cc1`, the figure is 14.1%; as for `CCOc1ccc(NS(=O)(=O)c2ccc(C(=O)N3CCCCC3)cc2)cc1`, -10.8%. Turning to `CNC(=O)C(C)N1c2cccc3cccc(c23)S1(=O)=O` (stereo not shown), the “hERG current change (%, negative = inhibition) at 1uM” value amounted to 15%.

`O=C(c1ccccc1)c1ccc2nc(-c3ccc(NC(=O)c4ccccc4Br)cc3)[nH]c2c1`: the “hERG current change (%, negative = inhibition) at 1uM” value is 16%.
